# Results: PubChem BioAssay AID1452 (National Center for Advancing Translational Sciences (NCATS), 2008)
# Several values for one entry are separate records, joined by “and”; a condition that tells them apart may be missing. Equal entries are not always repeated. The campaign covered roughly 150,000 compounds. About 190 (0.13%) were called active. Inconclusive results, whose numbers are uncertain, are shown with a selection of clear calls. Calls come from the whole dose curve; as a rule, active = well fitted inhibition curve with a large enough effect; inconclusive = small, poorly fitted or top-dose-only effect; inactive = flat fitted curve, though single readings scatter. Where the call is inconclusive, the potency comes from a doubtful curve fit.
# Target: Polyunsaturated fatty acid lipoxygenase ALOX12 (Homo sapiens) (UniProt P18054)
# Assay: qHTS Assay for Inhibitors of 12-hLO (12-human lipoxygenase); note: nearly all actives have a fitted effect of over 55% in size
# Conditions: purified 12-hLO, xylenol orange hydroperoxide absorbance; series mostly up to 57.1 µM; activity change, negative = inhibition: at the top concentration
# Method in brief: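 Hydroperoxide formation by human 12-lipoxygenase from 40 uM arachidonic acid was followed colorimetrically via ferric-xylenol orange complex, using the 573/405 nm absorbance ratio. Enzyme concentration was 150 nM, with 30 min reaction at room temperature.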
# % is set by controls: 0 for no effect and ±100 for the full control effect; potency is the fitted concentration of half-maximal effect; tags give direction and shape of the fitted curve.
# Sequence of UniProt P18054 (P18054 whole entry, looked up): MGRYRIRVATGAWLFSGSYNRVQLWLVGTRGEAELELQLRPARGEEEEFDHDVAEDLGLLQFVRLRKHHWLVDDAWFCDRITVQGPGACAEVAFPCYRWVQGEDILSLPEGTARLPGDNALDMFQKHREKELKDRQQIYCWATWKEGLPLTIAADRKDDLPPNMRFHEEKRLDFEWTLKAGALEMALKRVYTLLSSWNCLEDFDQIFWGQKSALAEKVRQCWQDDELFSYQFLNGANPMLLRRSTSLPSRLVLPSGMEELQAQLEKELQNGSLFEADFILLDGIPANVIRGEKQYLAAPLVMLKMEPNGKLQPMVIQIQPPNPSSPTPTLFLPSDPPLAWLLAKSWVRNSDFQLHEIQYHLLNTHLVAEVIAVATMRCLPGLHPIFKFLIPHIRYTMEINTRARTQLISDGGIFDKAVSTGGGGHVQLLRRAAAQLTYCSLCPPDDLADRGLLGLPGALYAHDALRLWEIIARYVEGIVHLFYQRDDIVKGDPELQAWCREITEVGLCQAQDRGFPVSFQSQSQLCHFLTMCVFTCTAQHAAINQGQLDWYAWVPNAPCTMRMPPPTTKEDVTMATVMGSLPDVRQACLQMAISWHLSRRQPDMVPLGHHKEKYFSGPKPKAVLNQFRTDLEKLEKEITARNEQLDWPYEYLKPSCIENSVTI
Compound,Potency,"activity change, negative = inhibition"
Oc1ccc(Cl)cc1Cc1cc(Cl)ccc1O,"inconclusive: 22.4 µM [inhibitor, single point]",–
CC(=O)c1ccc2c(c1)C1C(Cl)C(Sc3ccccc3[N+](=O)[O-])CC1C(c1ccccc1[N+](=O)[O-])N2 (configuration not stated),"inconclusive: 8.91 µM [inhibitor, partial curve]",–
C[C@@H](O)CN(CCN(C[C@@H](C)O)C[C@@H](C)O)C[C@@H](C)O.O=[N+]([O-])O.[Cu],"inconclusive: 3.55 µM [inhibitor, single point]",–
COc1ccc(/C=C/c2cc(O)cc(O)c2)cc1,"inconclusive: 20 µM [inhibitor, single point]",–
CC(=O)[O][Hg][c]1ccccc1,"inconclusive: 2.24 µM [inhibitor, full curve]",–
Cc1ccccc1C(=O)NNC(=S)NC(=O)COc1ccccc1,"inconclusive: 39.8 µM [inhibitor, single point]",–
Cc1ccc(C)c(OCC(=O)N2CCCN(C)CC2)c1,–,inactive: 2.43%
FC(F)(F)c1ccc2c(c1)N(CCCN1CCN(CCCl)CC1)c1ccccc1S2,"inconclusive: 39.8 µM [inhibitor, single point]",–
CCOC(=O)C(O)(c1ccc(NC(=S)NC(=O)c2ccc(Cl)cc2Cl)c(C)c1)C(F)(F)F (configuration not stated),"inconclusive: 25.1 µM [inhibitor, single point]",–
CCC(C)n1c(O)c(/C=N/Nc2ccccc2)c(=O)[nH]c1=S (configuration not stated),"inconclusive: 39.8 µM [inhibitor, single point]",–
C1CC2OC2CC1C1CO1 (configuration not stated),–,inactive: -0.658%
Cc1cccc(N2C(=O)NC(=O)/C(=C\c3cc(C)n(-c4sc5c(c4C#N)CCCC5)c3C)C2=O)c1C,"inconclusive: 39.8 µM [inhibitor, single point]",–
C=CCN1C(=O)/C(=C/c2cccs2)C(=O)NC1=S,–,inactive: -13.1%
O=C(O)CN1CCN(CC(=O)O)CC(=O)[O][Hg][O]C(=O)C1,active: 0.282 µM,–
Cc1ccc(-n2nc(C)c3c2NC(=O)CSC3c2ccc3c(c2)OCO3)cc1 (configuration not stated),"inconclusive: 8.91 µM [inhibitor, partial curve]",–
Cc1cccc2c1N(N=O)CCC2,"inconclusive: 12.6 µM [inhibitor, partial curve]",–
Cc1cccnc1-n1c(-c2ccco2)nc2ccccc2c1=O,–,inactive: -4.75%
O=C1CN=C(c2ccccc2)c2oc3ccc(Br)cc3c2N1,"inconclusive: 5.01 µM [inhibitor, full curve]",–
CC[N+](=O)[O-],–,inactive: 0.245%
CN1Cc2c(ccc3c2OCO3)C2C(O)Cc3cc4c(cc3C21)OCO4 (configuration not stated),inactive,–
CC1(C)C(C(Cl)Cl)C2(Cl)C(Cl)C(Cl)C1(Cl)C2(Cl)Cl (configuration not stated),–,inactive: -0.49%

Compound,Potency,"activity change, negative = inhibition"
Nc1c(C(=O)OCC2CCCO2)c2nc3ccccc3nc2n1Cc1cccs1 (configuration not stated),"inconclusive: 28.2 µM [inhibitor, partial curve]",–
CN1C(=O)/C(=C/c2cccn2-c2ccc3ccccc3c2)C(=O)NC1=S,"inconclusive: 14.1 µM [inhibitor, partial curve]",–
c1ccc2ccccc2c1,"inconclusive: 39.8 µM [inhibitor, single point]",–
CCCCC/C=C\C/C=C\C/C=C\C/C=C\CCCC(=O)NCCCl,"inconclusive: 39.8 µM [inhibitor, single point]",–
[Cl-].[Cl-].[Hg+2],active: 5.01 µM,–
CCOc1cc(-c2c(C#N)c(=O)[nH]c3c2c(C)nn3-c2ccc(F)cc2)ccc1O,"inconclusive: 11.2 µM [inhibitor, partial curve]",–
N#CC(C#N)=Cc1ccc(O)c(O)c1,"inconclusive: 15.8 µM [inhibitor, partial curve]",–
CC(=O)c1c(O)c(C)c(O)c(Cc2c(O)c3c(c(C(=O)/C=C\c4ccccc4)c2O)OC(C)(C)C=C3)c1O,"inconclusive: 39.8 µM [inhibitor, single point]",–
O=c1c2ccccc2[se]n1-c1ccccc1,active: 2.51 µM and active: 3.16 µM,–
N#CS.N=C=S.N=C=S.[Cu].[NH2-].[NH2-].[NH2-].[NH2-].c1ccc2ncccc2c1,"inconclusive: 1.26 µM [inhibitor, partial curve]",–
COC(=O)C1=Nc2ccccc2/C1=C\c1c(O)n(-c2ccc(Br)cc2)c(=O)[nH]c1=O,"inconclusive: 31.6 µM [inhibitor, single point]",–
CSC([N-]/N=C/c1cccc(C)n1)=[S]=[Cu].CS[C@H]([S-])[N-]/N=C/c1cccc(C)n1,"inconclusive: 3.16 µM [inhibitor, single point]",–
C=C(C)[C@H]1CN[C@H](C(=O)O)[C@@H]1CC(=O)O,–,inactive: -6.47%
CC(C)c1cccc(O)c(=O)c1,"inconclusive: 2.51 µM [inhibitor, partial curve]",–
CCCCC/C=C\C/C=C\C/C=C\C/C=C\CCCCCC(=O)NCCO,"inconclusive: 39.8 µM [inhibitor, single point]",–
Cc1cccc(NC(=O)c2cccc(NS(=O)(=O)c3ccc(Cl)cc3)c2)c1,"inconclusive: 5.62 µM [inhibitor, partial curve]",–
OC(COCc1ccc(Cl)cc1)CN1CC=C(c2ccccc2)CC1 (configuration not stated),"inconclusive: 3.16 µM [inhibitor, full curve]",–
CN[C@@H](C)[C@@H](O)c1ccccc1,"inconclusive: 3.16 µM [inhibitor, full curve]",–
O=C1C=CC(=O)C(Cl)=C1,"inconclusive: 28.2 µM [inhibitor, single point]",–
Cc1cccc(N2C(=O)/C(=C/c3ccc(CN(CCC#N)S(C)(=O)=O)o3)C(=O)NC2=S)c1,"inconclusive: 25.1 µM [inhibitor, single point]",–
CO[C@@H]([CH2][Hg])CN1C(=O)c2ccccc2S1(=O)=O.Cn1c(=O)c2nc[nH]c2n(C)c1=O,–,inactive: -0.425% [at 11.4 µM]

Compound,Potency,"activity change, negative = inhibition"
COC(=O)[C@]1(C)CC[C@@]2(C)CC[C@@]3(C)C4=CC=C5C(=CC(=O)C(O)=C5C)[C@@]4(C)CC[C@@]3(C)C2C1 (some centres not stated),"inconclusive: 8.91 µM [inhibitor, partial curve]",–
CC(C)CN(CC(C)C)c1ccc(C=C2C(=O)NC(=S)NC2=O)cc1[N+](=O)[O-],"inconclusive: 39.8 µM [inhibitor, single point]",–
O=C1NC(=O)N(C2CCCCC2)C(=O)C1C1c2ccccc2C(=O)N1Cc1ccccc1 (configuration not stated),–,inactive: -6.38%
C=CCc1ccc(OC)cc1,"inconclusive: 11.2 µM [inhibitor, partial curve]",–
Cc1ccccc1,"inconclusive: 39.8 µM [inhibitor, single point]",–
CCCCN1C(=O)/C(=C/C=C/c2ccco2)C(=O)NC1=S,"inconclusive: 25.1 µM [inhibitor, partial curve]",–
Cc1cc(Br)ccc1N1C(=O)CC(=O)NC1=O,"inconclusive: 31.6 µM [inhibitor, single point]",–
COP(=O)(OC)O/C(=C\Cl)c1cc(Cl)c(Cl)cc1Cl,–,inactive: 0.725%
CCCCCn1c(=O)c(C(=O)NCc2ccncc2)c(O)c2ccccc21,"inconclusive: 3.16 µM [inhibitor, partial curve]",–
C[CH2][Hg][S]c1ccccc1C(=O)O,"inconclusive: 8.91 µM [inhibitor, partial curve]",–
c1ccc(Nc2ccc(Nc3ccccc3)cc2)cc1,active: 12.6 µM,–
CCN1C(=O)C(=C/C=C/c2ccco2)C(=O)N(CC)C1=S,–,inactive: -19.9%
CCCCCCCC(=O)NC(Oc1ccccc1[N+](=O)[O-])C(Cl)(Cl)Cl (configuration not stated),–,inactive: 5.49%
CC(C)c1cc2c(c(O)c1O)[C@@]1(C(=O)O)CCCC(C)(C)[C@@H]1CC2,"inconclusive: 2 µM [inhibitor, full curve, poor fit]",–
c1cnc(N2CCC3(CCNCC3)CC2)nc1,–,inactive: 0.0148%
Cc1ccc(-c2cn3c(=S)[nH]nc3s2)cc1,"inconclusive: 35.5 µM [inhibitor, single point]",–
O=C(CCl)c1ccccc1,–,inactive: -2.57%
Cc1ccc(/C=C2/C(=O)NC(=O)N(CCc3ccc(F)cc3)C2=O)o1,"inconclusive: 39.8 µM [inhibitor, single point]",–
N#CC(C#N)=Cc1cc(O)c(O)c(O)c1,"inconclusive: 14.1 µM [inhibitor, partial curve]",–
COC1=CC(=O)O[C@@H](/C=C/c2ccccc2)C1,–,inactive: 1.95%
